Experimental data reported in US9498532B2, “Antibody drug conjugates” (Novartis AG, priority 2013, dated 2016).
Substitutions are numbered along the chain they refer to.

B1: 12422 (antibody)
heavy: QVQLVQSGAEVKKPGSSVKVSCKASGGTFSSYAISWVRQAPGQGLEWMGYISPYMGETHYAQKFQGRVTITADESTSTAYMELSSLRSEDTAVYYCARESYEYFDIWGQGTLVTVSSASTKGPSVFPLAPSSKSTSGGTAALGCLVKDYFPEPVTVSWNSGALTSGVHTFPAVLQSSGLYSLSSVVTVPSSSLGTQTYICNVNHKPSNTKVDKRV[in this place human IgG1 Fc]
light: DIQMTQSPSSLSASVGDRVTITCRASQSISNDLAWYQQKPGKAPKLLIYATSILQSGVPSRFSGSGSGTDFTLTISSLQPEDFATYYCLQYYDYSYTFGQGTKVEIKRTVAAPSVFIFPPSDEQLKSGTASVVCLLNNFYPREAKVQWKVDNALQSGNSQESVTEQDSKDSTYSLSSTLTLSKADYEKHKVYACEVTHQGLSSPVTKSFNRGEC
B2: 12439 (antibody)
heavy: QVQLVQSGAEVKKPGASVKVSCKASGYTFTSYDISWVRQAPGQGLEWMGWINPYNGGTNYAQKFQGRVTMTRDTSISTAYMELSRLRSEDTAVYYCAREGSGMIVYPGWSYAFDYWGQGTLVTVSSASTKGPSVFPLAPSSKSTSGGTAALGCLVKDYFPEPVTVSWNSGALTSGVHTFPAVLQSSGLYSLSSVVTVPSSSLGTQTYICNVNHKPSNTKVDKRV[in this place human IgG1 Fc]
light: B1 light with S28D, A34G, T51A, I53S, L89Q, Y91H, D93H, Y94T, S95P, Y96N

Test system: human FGFR2 IIIb, FGFR2 IIIc and FGFR4
Assay: Screening of panning outputs for specificity and cross-reactivity
Type: binding
Settings: human FGFR2 IIIb (P21802-3), IIIc (P21802-1), FGFR4 (P22455)
Method: Using ELISA screening, single Fab clones are identified from panning output for binding to the target antigen. Fabs are tested using Fab containing crude E. coli lysates.
Maxisorp™ (Nunc) 384 well plates were coated with FGFR antigens of interest (either via passive adsoption or via capture antibodies targeting the respective tag of the antigen) in PBS at their previous determined saturation concentration. Alternatively, Reacti-Bind™ NeutrAvidin™-coated Polystyrene Strip Plates (Pierce) were used to capture biotinylated FGFR2 antigen.
After blocking of plates with 5% skim milk powder in PBS, Fab-containing E. coli lysates were added. Binding of Fabs was detected by F(ab)2 specific goat anti-human IgG conjugated to alkaline phosphatase (diluted 1:5000) using Attophos fluorescence substrate (Roche, catalog #11681982001). Fluorescence emission at 535 nm was recorded with excitation at 430 nm.
In FACS screening, single Fab clones binding to cell surface expressed antigen are identified from the panning output. Fabs are tested for cell binding using Fab containing crude E. coli lysates.
In total, 28 different panning strategies were employed using recombinant antigen material as well as cell lines as outlined above. […] Following the screening process described, 15 antibodies were selected for further characterization as described in the examples below.

| Molecule | FGFR isoform binding specificity found in screening |
| --- | --- |
| B1 | bind to both human FGFR2 IIIb (Uniprot Accession # P21802-3) and IIIc isoforms (Uniprot Accession # P21802-1) and also human FGFR4 |
| B2 | bind to both human FGFR2 IIIb (Uniprot Accession # P21802-3) and IIIc isoforms (Uniprot Accession # P21802-1) and also human FGFR4 |
